Experiment [1] has as its target T1, Rrp2 (yeast two-hybrid fusion) (S. pombe) (UniProt O60177).
T1 sequence: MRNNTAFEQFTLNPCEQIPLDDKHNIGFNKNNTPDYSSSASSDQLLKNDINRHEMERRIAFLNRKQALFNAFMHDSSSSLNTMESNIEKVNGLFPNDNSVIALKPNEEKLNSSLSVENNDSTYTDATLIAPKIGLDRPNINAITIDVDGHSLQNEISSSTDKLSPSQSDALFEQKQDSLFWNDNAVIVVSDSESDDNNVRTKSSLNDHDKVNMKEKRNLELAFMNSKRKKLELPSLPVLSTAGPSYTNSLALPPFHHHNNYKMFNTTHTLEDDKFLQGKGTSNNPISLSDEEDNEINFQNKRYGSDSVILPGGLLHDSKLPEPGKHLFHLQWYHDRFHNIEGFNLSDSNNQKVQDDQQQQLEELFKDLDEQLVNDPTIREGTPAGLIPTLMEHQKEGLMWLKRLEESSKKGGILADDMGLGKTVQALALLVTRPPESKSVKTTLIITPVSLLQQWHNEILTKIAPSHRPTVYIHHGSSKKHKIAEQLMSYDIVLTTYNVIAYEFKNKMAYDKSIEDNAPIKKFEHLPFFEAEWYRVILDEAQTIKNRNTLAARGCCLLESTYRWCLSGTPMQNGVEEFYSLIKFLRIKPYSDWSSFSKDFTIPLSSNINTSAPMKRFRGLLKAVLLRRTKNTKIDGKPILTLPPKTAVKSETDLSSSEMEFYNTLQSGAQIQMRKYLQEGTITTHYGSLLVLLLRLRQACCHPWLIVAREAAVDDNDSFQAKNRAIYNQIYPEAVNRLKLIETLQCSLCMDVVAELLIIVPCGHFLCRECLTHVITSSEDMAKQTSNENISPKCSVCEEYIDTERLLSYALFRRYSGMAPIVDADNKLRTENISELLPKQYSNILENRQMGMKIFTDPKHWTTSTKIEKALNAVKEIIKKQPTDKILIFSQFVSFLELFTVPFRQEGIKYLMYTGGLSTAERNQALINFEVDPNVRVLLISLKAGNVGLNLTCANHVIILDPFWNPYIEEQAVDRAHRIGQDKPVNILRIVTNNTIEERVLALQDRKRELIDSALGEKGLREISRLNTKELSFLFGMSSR
In words: two-hybrid; Gal4-based Matchmaker Two-Hybrid System 3 (Clontech), pGADT7 and pGBKT7 fusions in S. cerevisiae AH109; growth on SD DO-3 (low stringency) and SD DO-4 (high stringency), 3-5 days at 28°C.

Experiment [2] deals with T2, Rrp1-FLAG (overproduced in S. pombe) (S. pombe) (UniProt O13762).
T2 sequence: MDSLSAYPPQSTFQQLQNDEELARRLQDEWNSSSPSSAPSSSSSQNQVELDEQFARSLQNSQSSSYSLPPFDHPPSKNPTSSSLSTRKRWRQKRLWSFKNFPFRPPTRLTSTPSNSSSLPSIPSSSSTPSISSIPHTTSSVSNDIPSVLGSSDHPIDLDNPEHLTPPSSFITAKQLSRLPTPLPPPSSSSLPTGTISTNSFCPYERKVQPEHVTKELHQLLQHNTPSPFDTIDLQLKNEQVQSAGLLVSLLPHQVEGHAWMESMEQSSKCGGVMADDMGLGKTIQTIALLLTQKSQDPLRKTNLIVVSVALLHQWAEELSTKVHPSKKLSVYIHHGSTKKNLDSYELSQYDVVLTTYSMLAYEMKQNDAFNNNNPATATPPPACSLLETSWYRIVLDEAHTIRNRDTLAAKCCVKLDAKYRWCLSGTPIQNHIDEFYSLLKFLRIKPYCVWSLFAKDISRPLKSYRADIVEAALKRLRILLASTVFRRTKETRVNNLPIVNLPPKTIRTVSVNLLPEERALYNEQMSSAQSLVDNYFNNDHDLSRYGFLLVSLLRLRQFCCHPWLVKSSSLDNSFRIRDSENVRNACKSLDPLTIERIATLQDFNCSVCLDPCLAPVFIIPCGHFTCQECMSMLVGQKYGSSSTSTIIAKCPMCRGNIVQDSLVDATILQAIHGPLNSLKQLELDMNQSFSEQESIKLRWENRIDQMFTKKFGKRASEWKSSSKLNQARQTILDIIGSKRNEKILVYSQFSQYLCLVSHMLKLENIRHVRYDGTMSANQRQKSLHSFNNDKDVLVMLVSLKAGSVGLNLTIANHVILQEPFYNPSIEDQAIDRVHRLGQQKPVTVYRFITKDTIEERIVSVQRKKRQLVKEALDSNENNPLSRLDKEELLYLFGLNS
The experiment is described as follows: co-IP; S. pombe extracts (H buffer) with native levels of Rad51 and overproduced FLAG-tagged Rrp1 or Rrp2; precipitated with anti-FLAG M2 affinity gel, eluted with 3xFLAG peptide, western blot with anti-FLAG and anti-Rad51.

The target in experiment [3] is T3, Rrp2-FLAG (overproduced in S. pombe) (S. pombe) (UniProt O60177).
T3 sequence: T1 sequence
Described as above.

The target of experiment [4] is T4, C-terminal fragment of Rrp1 (residues 695-897) containing the C-helicase domain (S. pombe) (UniProt O13762).
T4 sequence: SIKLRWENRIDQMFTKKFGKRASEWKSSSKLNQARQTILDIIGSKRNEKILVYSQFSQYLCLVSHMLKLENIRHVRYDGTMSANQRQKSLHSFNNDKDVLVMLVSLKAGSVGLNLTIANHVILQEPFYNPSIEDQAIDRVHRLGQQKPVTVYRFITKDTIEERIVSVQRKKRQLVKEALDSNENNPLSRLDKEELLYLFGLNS
The experiment is described as follows: two-hybrid; Gal4-based Matchmaker Two-Hybrid System 3 (Clontech), pGADT7 and pGBKT7 fusions in S. cerevisiae AH109; growth on SD DO-3 (low stringency) and SD DO-4 (high stringency), 3-5 days at 28°C.

Experiment [5] deals with T5, Rrp1 (yeast two-hybrid fusion) (S. pombe) (UniProt O13762).
T5 sequence: T2 sequence
The experiment is described as above.

These are yes or no findings as the source states them, for the method shown. For part of these data: In cells and extracts the contact can be indirect. Some results given as binding are weak or reduced against the parent protein; the word gives no strength. For part of these data: Where a sequence is shown, tags or fusion partners need not be part of it.

B1: Rad51-N (N-terminal, residues 1-117) (domain or fragment, UniProt P36601 1-117)
chain: MADTEVEMQVSAADTNNNENGQAQSNYEYDVNVQDEEDEAAAGPMPLQMLEGNGITASDIKKIHEAGYYTVESIAYTPKRQLLLIKGISEAKADKLLGEASKLVPMGFTTATEYHIR
As for B1, the binding entry in experiment [1] is given as “no binding”.

B2: Rad51 (purified) (natural protein, S. pombe, UniProt P36601 1-365, looked up)
chain: MADTEVEMQVSAADTNNNENGQAQSNYEYDVNVQDEEDEAAAGPMPLQMLEGNGITASDIKKIHEAGYYTVESIAYTPKRQLLLIKGISEAKADKLLGEASKLVPMGFTTATEYHIRRSELITITTGSKQLDTLLQGGVETGSITELFGEFRTGKSQICHTLAVTCQLPIDMGGGEGKCLYIDTEGTFRPVRLLAVADRYGLNGEEVLDNVAYARAYNADHQLELLQQAANMMSESRFSLLVVDSCTALYRTDFSGRGELSARQMHLARFMRTLQRLADEFGIAVVITNQVVAQVDGISFNPDPKKPIGGNILAHSSTTRLSLRKGRGEQRICKIYDSPCLPESEAIFAINSDGVGDPKEIIAPV
notes: Rad51 of Schizosaccharomyces pombe; also called purified Rad51
As to B2, the binding entry in experiment [2] is reported as “binds”; in experiment [3], “no binding”.

B3: Rad51-C (C-terminal, residues 114-365 containing the Walker A and B motifs) (domain or fragment, UniProt P36601 114-365)
chain: YHIRRSELITITTGSKQLDTLLQGGVETGSITELFGEFRTGKSQICHTLAVTCQLPIDMGGGEGKCLYIDTEGTFRPVRLLAVADRYGLNGEEVLDNVAYARAYNADHQLELLQQAANMMSESRFSLLVVDSCTALYRTDFSGRGELSARQMHLARFMRTLQRLADEFGIAVVITNQVVAQVDGISFNPDPKKPIGGNILAHSSTTRLSLRKGRGEQRICKIYDSPCLPESEAIFAINSDGVGDPKEIIAPV
B3: the binding entry in experiment [4] was “binds”; in experiment [5], “binds”; in experiment [1], “no binding”.

The values above are taken from paper PMC8266636, “Rrp1 translocase and ubiquitin ligase activities restrict the genome destabilising effects of Rad51 in fission yeast” (Nucleic Acids Research, 2020).
